Test results reported in PMC6212790.
The list shows a part of the results. At the low end of the ranking the order means little.

Molecular target: T1, GST-Rok-C97-191 (UniProt O34857)
T1 sequence: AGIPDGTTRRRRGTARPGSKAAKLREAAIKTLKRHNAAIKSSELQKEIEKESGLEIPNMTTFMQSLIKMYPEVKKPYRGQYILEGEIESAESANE
Test: protein binding microarray;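 note: rank score from −0.5 (least bound) to 0.5 (best bound)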
Conditions: Rok is a gene silencer of Bacillus subtilis; high values mean tight binding; most listed sequences are background and not binding sites; double strand, one strand shown

Row | Sequence | binding signal
1 | CAACCTAG | -0.000582 E-score
2 | GACACATC | -0.00281 E-score
3 | AAGCGATA | 0.0708 E-score
4 | TCAGCGGA | -0.0224 E-score
5 | CTGAAAAC | -0.108 E-score
6 | AAATGGGA | -0.015 E-score
7 | AAAGACTC | -0.103 E-score
8 | GCGCGGAC | -0.325 E-score
9 | ACTGAGAT | 0.00452 E-score
10 | ATTCCATA | 0.149 E-score
11 | GCTCGCTA | 0.145 E-score
12 | ACTCAAAA | 0.114 E-score
13 | ACACTTTG | -0.0345 E-score
14 | ACCCCGCC | -0.27 E-score
15 | CCGGCACA | -0.0406 E-score
16 | ACGAACAC | -0.011 E-score
17 | TAAAAGCA | 0.167 E-score
18 | ATATGGCC | -0.0543 E-score
19 | AAGCTCTG | -0.273 E-score
20 | CGGTAGGC | 0.014 E-score
21 | GCTTACAC | -0.028 E-score
22 | CCTTGGTC | -0.143 E-score
23 | CACCTGGC | -0.158 E-score
24 | CTCACGTC | 0.053 E-score
25 | AGTGCTAT | 0.0913 E-score

Row | Sequence | binding signal
26 | TAGGGCGA | 0.0402 E-score
27 | CACTGGCC | -0.143 E-score
28 | TTGCTAAA | 0.164 E-score
29 | ACCAATCT | 0.317 E-score
30 | GAAAGTTC | 0.04 E-score
31 | ATGCCGAA | 0.0148 E-score
32 | CACTAGGG | -0.0403 E-score
33 | GTAACATA | 0.18 E-score
34 | CAATGGGA | 0.041 E-score
35 | CGGGATCA | -0.197 E-score
36 | GGCAATGA | 0.0108 E-score
37 | AACTTGTA | 0.164 E-score
38 | AATATTCC | 0.106 E-score
39 | CATTAAAA | -0.0737 E-score
40 | CGGCGCAC | -0.264 E-score
41 | GACTTAAA | -0.0231 E-score
42 | AGCTTGAC | -0.0959 E-score
43 | GTAATCAA | 0.133 E-score
44 | CCCATAAA | 0.0363 E-score
45 | ACAGCAAC | 0.0658 E-score
46 | ACCAGCAG | -0.226 E-score
47 | CAAATGGG | -0.0772 E-score
48 | CAGGGTGG | -0.212 E-score
49 | AAATCCAC | -0.0171 E-score
50 | CTATCAAC | 0.151 E-score

Row | Sequence | binding signal
51 | AACACCCA | -0.114 E-score
52 | AAGACCTA | -0.0446 E-score
53 | CGGTGTAA | 0.00876 E-score
54 | AATGCCGA | -0.0405 E-score
55 | AGTGCGCG | -0.204 E-score
56 | GCGAGGAA | -0.197 E-score
57 | CTCATAAG | -0.126 E-score
58 | TATCCATA | 0.178 E-score
59 | TCGATTCA | 0.0914 E-score
60 | ATTATTTC | 0.215 E-score
61 | CAGCGTTC | -0.283 E-score
62 | AATTGATG | 0.176 E-score
63 | CGGGCTAA | -0.128 E-score
64 | CCTAGCTC | -0.127 E-score
65 | CCCACCGG | -0.217 E-score
66 | ATACCCGC | -0.0886 E-score
67 | CATTGTGC | 0.154 E-score
68 | ACTTGGCG | -0.022 E-score
69 | CTCAGCGA | -0.0352 E-score
70 | CTCGATTC | 0.106 E-score
71 | TACGGAAA | 0.0938 E-score
72 | ACTAAGCC | -0.163 E-score
73 | AGGCCTGG | -0.37 E-score
74 | ATAGTTAG | 0.35 E-score
75 | CATCGGCA | -0.208 E-score

Row | Sequence | binding signal
76 | CAGACACA | 0.067 E-score
77 | TGTGCCAA | -0.16 E-score
78 | AAGTGAAC | -0.18 E-score
79 | GGGCAGAA | -0.131 E-score
80 | ATCCCCGC | -0.217 E-score
81 | CATATCAG | -0.0728 E-score
82 | AAGGAGGA | -0.0693 E-score
83 | AGTGTCTG | -0.11 E-score
84 | ACTGCAGT | 0.144 E-score
85 | ACCTGCAT | 0.185 E-score
86 | AACATTTC | 0.0259 E-score
87 | ACTACAGG | 0.0574 E-score
88 | ACCAGTCG | -0.0573 E-score
89 | GCTATGAA | -0.0129 E-score
90 | CGGACGGA | -0.267 E-score
91 | GGTGTGTA | 0.189 E-score
92 | AATAGTTC | 0.343 E-score
93 | GACCGAAC | -0.311 E-score
94 | GAGCGCTA | -0.00065 E-score
95 | CCGCTACA | -0.000498 E-score
96 | ATCCCCGA | -0.144 E-score
97 | AGAGCGCG | 0.0509 E-score
98 | GTTCGCCA | -0.0157 E-score
99 | CGAAGCGC | -0.146 E-score
100 | AGCTCTAG | 0.0105 E-score

Row | Sequence | binding signal
101 | ACCCGAAC | -0.035 E-score
102 | GAGACCTA | -0.147 E-score
103 | ATCTTCAG | -0.0198 E-score
104 | CTCATAAA | -0.0294 E-score
105 | CCTCTCGC | -0.186 E-score
106 | AGGGCGAA | -0.139 E-score
107 | ATTGCAGC | -0.0924 E-score
108 | CTGCACCC | -0.22 E-score
109 | AACAAGTA | 0.371 E-score
110 | ATATGTCA | 0.0956 E-score
111 | AGGCCTGA | -0.155 E-score
112 | CAAATGAG | -0.175 E-score
113 | ATCTGGAC | -0.151 E-score
114 | AATTAGTA | 0.408 E-score
115 | TCCCCTAA | -0.201 E-score
116 | GTTTGCTA | 0.207 E-score
117 | GCGTCCAC | -0.238 E-score
118 | ACTAAACG | 0.0596 E-score
119 | ATGCGACC | -0.271 E-score
120 | CCGATCCG | -0.168 E-score
121 | GAGTCGAC | -0.162 E-score
122 | ACACGGAC | -0.202 E-score
123 | TCCCCCCA | -0.128 E-score
124 | CACCCACA | -0.0813 E-score
125 | AGGGGAAT | -0.0867 E-score

Row | Sequence | binding signal
126 | AACAGCAG | -0.0424 E-score
127 | AAGGCCGT | -0.245 E-score
128 | TAAGGCTA | -0.0394 E-score
129 | AACAACCA | -0.00264 E-score
130 | AGAGAAAT | 0.278 E-score
131 | ATCGTCTC | -0.146 E-score
132 | GGTACACC | -0.00389 E-score
133 | ATCGAGCG | 0.0214 E-score
134 | CGAGGGTC | -0.146 E-score
135 | ACGTGACA | -0.0371 E-score
136 | AATGGTGG | -0.0858 E-score
137 | ACTGCCGC | -0.16 E-score
138 | ACTGCTAT | 0.186 E-score
139 | CGACTGCG | -0.243 E-score
140 | CTGGCGTA | 0.0573 E-score
141 | ACGCCTCC | -0.137 E-score
142 | GCTGATAA | 0.19 E-score
143 | ATCCTCAG | -0.0161 E-score
144 | TCAATAAA | 0.186 E-score
145 | ATACCAGG | 0.158 E-score
146 | ACGTAACG | -0.0897 E-score
147 | GCCGGAAA | -0.1 E-score
148 | GACAACGA | -0.105 E-score
149 | CTCCCTCC | -0.156 E-score
150 | CAAAAAAC | 0.0557 E-score

Row | Sequence | binding signal
151 | ATGTTAGA | 0.155 E-score
152 | GATCCGGC | -0.281 E-score
153 | GAAAGTCC | -0.0693 E-score
154 | AACCTAAT | 0.0397 E-score
155 | CGATTTCA | -0.247 E-score
156 | AGCTTGGG | -0.139 E-score
157 | CAAGAAGA | -0.0481 E-score
158 | AGCGCGAG | -0.0438 E-score
159 | CGGAAACC | -0.0164 E-score
160 | ATCGTCGA | -0.0168 E-score
161 | CCTGCTTC | -0.26 E-score
162 | CACTTGCG | -0.0481 E-score
163 | ACAGGAAT | -0.262 E-score
164 | AGTCGACA | -0.0961 E-score
165 | CGTGGCCA | -0.306 E-score
166 | CGCTTAAA | -0.127 E-score
167 | CTCCCATC | -0.161 E-score
168 | GCTGTCCA | -0.0683 E-score
169 | GTATCCAA | 0.116 E-score
170 | AAGAACAT | 0.00812 E-score
171 | AGCCCGTA | -0.174 E-score
172 | GGGATCCA | -0.17 E-score
